Measurements from the supplement of paper PMC10338343.
± gives the standard deviation. Only a part is listed here, and it is no random draw.

System: MIWI (PIWIL1) piRISC loaded with piRNA #1 (30 nt)
Assay: pre-steady-state target cleavage rate (min^-1); MIWI and MILI are mouse PIWI proteins and EfPiwi is from a freshwater sponge; tags in brackets are library labels; higher = faster piRNA-guided slicing of the target
Conditions: guide: piRNA #1 5'p-UGAGGUAGUAGGUUGUAUAGUAUCCAGAGG; auxiliary factor: 500 nM mouse GTSF1
Outline: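 A burst-and-steady-state fit was used to obtain the pre-steady-state cleavage rate. The input data were sequencing reads of uncleaved targets, normalised to depth and to weakly complementary targets, from a […] transcribed, DNA-blocked target RNA library mixed with 1 nM active affinity-purified piRISC holding one synthetic guide, with or without 500 nM GTSF1 partner protein, in HEPES–potassium acetate buffer at 33 °C for 0–8 or 0–960 min. Three trials were pooled and k3 was capped at 0.0001 min^-1.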
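Further: 1 nM active piRISC with 0.1 nM target library at 33 °C single turnover.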

Sequence	pre-steady-state target cleavage rate
GGAGUGGAUACUAUACAACCUACUACCGUCA	0.0556 ± 0.0087
GGAGUGGAUACUAUACCACCUACUACCUCA	1.3 ± 0.075
GGAGACGAUACUAUAGAACGUACUACCUCA	0.39 ± 0.035
GGUCUGGAUACUAUACAUCGUACUACCUCA	0.461 ± 0.037
GCUCUCGGAUACUAUACAACCUACUACCUCA	1.76 ± 0.088
GCUCUGGAUACUAUACAACCUACAUACCUCA	1.87 ± 0.16
GGAGUGGAUACUAAACAACCUACAACCUCA	0.34 ± 0.036
GCUCUGGAUACUAUACAACCUACUCACCUCA	1.05 ± 0.098
GGUCUGGAUACUACUACAACCUACUACCUCA	1.53 ± 0.11
GGAGACCUAACUAUAGAACCUACUUCCUCA	0.0104 ± 0.0059
GCUCUGGAUACUAUACAACCUACAACCACA	0.757 ± 0.098
GGAGAGGAUUCUAUACAUCCUACUACCUCA	1.31 ± 0.069
GGAGAGGAUACUAUACAAGCUACUAGCUCA	0.279 ± 0.045
GGAGUGCAUACUAUACAACCAACUACCUCA	0.116 ± 0.0099
CCUCUGGAAACUAUACAAGCUACUACCUCA	1.49 ± 0.068
GGUCUGGAUUCUAUACAACCUACUACCACA	0.928 ± 0.073
GCUCUGGAUACUAUACAAGCUUCUACCUCA	0.218 ± 0.018
CCUGUGGAUACUAUACAAGCUACUACCUCA	0.963 ± 0.039
GGAGACCUAUGAAAAGAACCUACUACCUCA	< 0.0001
CGUCUGGAAACUAUACAACCUACUACCUCA	1.72 ± 0.083
GCUCUGGUAUCUAUACAACCUACUACCUCA	1.78 ± 0.095
GCUCAGGAUACUAUACAACCUUCUACCUCA	0.616 ± 0.038
GGAGACCAUACUAUACAACGUACUUCCUCA	0.271 ± 0.03
GGAGAGGCAUACUAUACAACCUACUACCUCA	1.07 ± 0.052
